The values below come from article PMC11000209.

The target of this experiment is His6-Ec.BAP (22–471) (E. coli (printed as Ec.)) [phosphatase: P00634]. The experiment in a line: SEC. (Size exclusion chromatography separates by hydrodynamic size, large species first.)

What is called stoichiometry N is the number of molecules, sites or subunits per partner or assembly. In the case of “His6-Ec.BAP ([…]) (a stretch of the chain, sequence not shown) (enzyme; other documents disagree on this pair)”, the stoichiometry N came to 4.
